# Reference: the supplement of paper PMC4967469
# The IC50 comes from the fitted curve, where viability falls to half of the control; a fit beyond the top or the lowest dose is shown as a bound at that dose. AUC is the area under the same curve over the 256-fold range up to the top dose, as a fraction; the more sensitive the line, the further below 1. For some of these results: An inferred top dose is not printed in the source and was worked back from the curve model. For some of these results: Drugs with an entry number were screened twice under separate entries, and the two screens often disagree.
# Tests used:
# Test in all cases: Viability of human cancer cell lines after 72 h of drug (GDSC screen)
# [1] = compound: O=C(/C=C/c1ccc(CN(CCO)CCc2c[nH]c3ccccc23)cc1)NO [LAQ824]; conditions: top dose 1.024 µM; top dose inferred
# Protocol: (§1)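 Human cancer cell lines in 384-well plates, medium with 10% serum, drug for 72 h over a 256-fold dose range (nine 2-fold or five 4-fold steps up to the top dose). Adherent lines were fixed and stained with the nucleic acid dye Syto60, suspension lines read with resazurin; signal relative to control wells, capped at 0 and 100%. One two-parameter sigmoid per drug and line, fitted in a mixed model over all curves with the slope shared within a line.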
# [2] = compound: O=C(Nc1cccc(Nc2ncc(Br)c(NCCc3cnc[nH]3)n2)c1)N1CCCC1 [BX-912]; conditions: top dose 10.24 µM; top dose inferred
# Protocol: as §1
# [3] = compound: CCCC(=O)OCc1ccc(OC(=O)/C=C(C)/C=C/C=C(C)/C=C/C2=C(C)CCCC2(C)C)cc1 [VNLG/124]; conditions: top dose 5.12 µM; top dose inferred
# Protocol: as §1
# [4] = compound: O=C(Nc1ccc(OC(F)(F)F)cc1)c1sccc1NCc1ccnc2ccccc12 [OSI-930]; conditions: top dose 10.24 µM
# Protocol: as §1
# [5] = compound: Cc1ccc(NC(=O)c2ccc(CN3CCN(C)CC3)cc2)cc1Nc1nc(-c2cccnc2)cs1 [Masitinib]; conditions: top dose 20 µM
# Protocol: as §1
# [6] = compound: Cc1c(N)nc([C@H](CC(N)=O)NC[C@H](N)C(N)=O)nc1C(=O)N[C@H](C(=O)N[C@H](C)[C@@H](O)[C@H](C)C(=O)N[C@H](C(=O)NCCc1nc(-c2nc(C(=O)NCCC[S+](C)C)cs2)cs1)[C@@H](C)O)[C@@H](OC1OC(CO)C(O)C(O)C1OC1OC(CO)C(O)C(OC(N)=O)C1O)c1cnc[nH]1 [Bleomycin]
# Protocol: as §1
# [7] = compound: O=S(=O)(O)c1ccc2cc(N=Nc3cc(S(=O)(=O)O)c4cccnc4c3O)ccc2c1 [NSC-87877]; conditions: top dose 16 µM; top dose inferred
# Protocol: as §1
# [8] = compound: CN(NC(=O)CC(=O)NN(C)C(=S)c1ccccc1)C(=S)c1ccccc1 [Elesclomol]; conditions: top dose 0.2 µM; top dose inferred
# Protocol: as §1
# [9] = top dose 50 µM, screen: GDSC drug entry 1378, top dose inferred
# [10] = top dose 64 µM, screen: GDSC drug entry 190
Cell Line,AUC [1],IC50 [1] [µM],AUC [2],IC50 [2] [µM],AUC [3],IC50 [3] [µM],AUC [4],IC50 [4] [µM],AUC [5],IC50 [5] [µM],"AUC [6, 9]","IC50 [6, 9] [µM]","AUC [6, 10]","IC50 [6, 10] [µM]",AUC [7],IC50 [7] [µM],AUC [8],IC50 [8] [µM]
"HCC1187 (breast, suspension)",0.932,> 1.02,0.561,0.929,0.987,> 5.12,0.918,> 10.2,0.946,> 20,0.45,2.29,0.785,26,0.986,> 16,0.723,0.0518
"LS-411N (large intestine, adherent)",0.383,0.0283,0.876,> 10.2,0.969,> 5.12,0.951,> 10.2,0.886,> 20,0.746,18.9,0.28,0.822,0.982,> 16,0.8,0.122
"ML-2 (acute myeloid leukaemia, suspension)",0.43,0.0422,0.448,0.47,0.85,3.23,0.95,> 10.2,0.857,13.4,0.434,2.11,0.139,0.357,0.981,> 16,0.988,> 0.2
"CMK (acute myeloid leukaemia, suspension)",0.142,0.00636,0.834,5.28,0.744,1.4,0.923,> 10.2,0.777,6.79,0.945,> 50,0.727,15.6,0.968,> 16,0.988,> 0.2
"ME-180 (cervix, adherent)",0.558,0.0931,0.777,4.3,0.967,> 5.12,0.966,> 10.2,0.883,> 20,0.371,1.35,0.85,51.7,–,–,0.489,0.0116
"U-87-MG (glioma, adherent)",0.734,0.338,0.963,> 10.2,0.973,> 5.12,0.983,> 10.2,0.882,> 20,0.773,23,0.633,9.99,–,–,0.868,> 0.2
"NCI-H1963 (small cell lung carcinoma, suspension)",0.375,0.0304,–,–,0.984,> 5.12,–,–,–,–,–,–,0.917,> 64,0.973,> 16,0.744,0.0559
"LN-229 (glioma, adherent)",0.46,0.0498,0.984,> 10.2,0.981,> 5.12,0.981,> 10.2,0.976,> 20,0.482,2.8,0.773,24.9,–,–,0.567,0.0191
